Results from PubChem BioAssay AID485313 (National Center for Advancing Translational Sciences (NCATS), 2010).
About 7,600 (2.4%) of roughly 320,000 compounds were called active. The inconclusive results got no clear call from the source; some entries with a clear call stand among them for comparison. Calls follow the shape of the dose curve; as a rule, active = well fitted activation curve with a large enough effect; inconclusive = small, poorly fitted or top-dose-only effect; inactive = no such curve, though single readings can be large or run the other way. No potency is given beside an inconclusive call; the fits are too rough.

Experiment: qHTS Assay for NPC1 Promoter Activators; also: nearly all actives have a fitted effect of over 60% in size;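 as to activation: reporter is driven by a mutant NPC1 promoter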
Conditions: Huh7 NPC1 promoter luciferase reporter, 24 h; series mostly up to 9.22 µM
In short: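 Stable NPC1-promoter luciferase Huh7 line; cpd (DMSO) 24 h, 37 °C, 5% CO2; Amplite luciferase reagent 10 min RT; luminescence readout. qHTS format.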
Potency is read from the fitted curve at half-maximal effect; tags tell the direction and shape of the fitted curve.

Row | SMILES | Potency
1 | c1cncc(-c2nc3ccccc3s2)c1 | inconclusive [activator, single point]
2 | CCOC(=O)C1CCCN(C(=O)c2cc(-c3ccccc3)on2)C1 (stereo not given) | inconclusive [activator, partial curve]
3 | CCc1ccc2c(c1)C(=O)c1ccccc1C2=O | inconclusive [activator, single point]
4 | C=CCOc1ccc(/C=C/C(=O)N2CCCN(S(=O)(=O)c3c(C)noc3C)CC2)cc1 | inactive
5 | C/C(=N\OC(=O)c1ccc(Cl)cc1)c1sc(-c2ccccc2)nc1C | active: 3.98 µM
6 | COc1ccc(NN=Nc2ccc([N+](=O)[O-])cc2)cc1 | inconclusive [activator, single point]
7 | COC(=O)c1ccc(C(=O)Nc2ccc(C(C)C)cc2N)cc1 | inconclusive [activator, partial curve]
8 | O=C(NCCSc1ccccn1)c1ccc(Cl)cc1Cl | active: 0.794 µM
9 | Cc1ccc(-c2cn3c(n2)CCCC3)cc1 | inactive
10 | COc1cccc(NC(=O)c2ccncc2)c1 | inactive
11 | Cc1ccc(-c2csc(N)n2)s1 | inconclusive [activator, single point]
12 | Cc1ccc(-c2nnc(-c3ccc(Br)cc3)o2)o1 | inconclusive [activator, partial curve]
13 | O=C1NN(c2ccccc2)C(=O)/C1=C\c1coc2ccc(O)cc2c1=O | inactive
14 | CCCOc1ccc(C(=O)Nc2ccc(Cl)cn2)cc1 | active: 0.708 µM
15 | Oc1ccc(-c2nnc(-c3ccc(O)cc3)nn2)cc1 | active: 3.16 µM
16 | CC(C)OC(=O)CSc1nc2c(cc1C#N)CCCCC2 | inconclusive [activator, single point]
17 | COC(=O)c1ccccc1NC(=O)CSc1nnc(-c2ccc(C)cc2)o1 | inconclusive [activator, single point]
18 | COc1ccc2c(c1)c(/C=N/Nc1ccc(C(=O)O)cc1)c(C)n2C | inconclusive [activator, single point]
19 | COc1ccc(NC(=O)CSc2ccccc2)c(OC)c1 | inconclusive [activator, partial curve]
20 | O=C(NCc1ccccc1Cl)C1CCN(S(=O)(=O)c2cccs2)CC1 | inactive
21 | Cc1c(C(=O)Nc2cccnc2)oc2ccc(Br)cc12 | inconclusive [activator, partial curve]
22 | COc1ccc(-c2csc(NC(=O)C3CCCO3)n2)cc1 (stereo not given) | inconclusive [activator, single point]
23 | CC(C)CN1C(=O)c2ccc(NC(=O)c3ccco3)cc2C1=O | inconclusive [activator, partial curve]
24 | Cn1c(C(=O)NC2CCCCC2)cc2sccc21 | inconclusive [activator, single point]
25 | CC(Cc1cccs1)NC(=O)Nc1ccc(Cl)cc1 (stereo not given) | inconclusive [activator, partial curve]

Row | SMILES | Potency
26 | C=CCC1(CC=C)CCCN1C(=O)c1cc(COc2ccc(F)c(F)c2)on1 | inactive
27 | Cc1ccc(C(=O)c2sc3nsc(C)c3c2N)cc1 | active: 1.12 µM
28 | Cc1ccc(N(C)S(=O)(=O)c2cccc(C(=O)NCC(c3ccco3)N3CCCC3)c2)cc1 (stereo not given) | inactive
29 | Cc1cc(C(F)F)nn1CC(=O)NC1C(=O)N2C(C(=O)O)=C(CSc3nnnn3C)CSC12 (stereo not given) | inactive
30 | COc1ccc2oc(C(=O)NCC3CCCO3)c(C)c2c1 (stereo not given) | inconclusive [activator, single point]
31 | COc1ccc2[nH]cc(C(=O)CN3CCC(C)CC3)c2c1 | inconclusive [activator, partial curve]
32 | O=C(Nc1nnc(SCC(=O)N2CCOCC2)s1)c1ccccc1Cl | inconclusive [activator, partial curve]
33 | C=CCn1c(C)nc2c(sc3nc4c(cc32)COC(C)(C)C4)c1=O | active: 1.78 µM
34 | Clc1ccc(-n2nnc(-c3cccnc3Cl)n2)cn1 | inconclusive [activator, partial curve]
35 | CN(C)S(=O)(=O)c1ccc(NC(=O)c2cc3ccccc3o2)cc1 | inconclusive [activator, single point]
36 | CCC(=O)N1CCc2nc(-c3ccccc3)sc2C1 | inconclusive [activator, single point]
37 | O=C(Cn1nnc(-c2ccccc2)n1)OCc1ccccc1 | inactive
38 | COC(=O)c1ccc(COc2ccc(/C=N/N3CCN(C)CC3)cc2)cc1 | inconclusive [activator, partial curve]
39 | COC(=O)c1c(-c2ccc(F)cc2)csc1NC(=O)c1ccco1 | inconclusive [activator, partial curve]
40 | CC(NC(=O)c1ccc2ccccc2n1)c1ccc(Br)cc1 (stereo not given) | inactive
41 | O=C(c1ccc2c3c(cccc13)CC2)N1CCOCC1 | inactive
42 | CCCCNC(=O)CNC(=O)c1nn(-c2ccc(OC)cc2OC)c(=O)c2ccccc12 | inactive
43 | O=C(Nc1cccc([N+](=O)[O-])c1)c1ccn[nH]1 | inconclusive [activator, single point]
44 | CCOC(=O)c1csc(NC(=O)c2cc3ccccc3o2)n1 | inconclusive [activator, full curve]
45 | COc1cccc(CN2CCN(C(=O)c3ccc(-c4ccccc4)cc3)CC2)c1 | inactive
46 | O=C(N/N=C1\CCCc2ccccc21)c1ccccc1Cl | inconclusive [activator, single point]
47 | COc1ccccc1C(=O)NC(=O)COC(=O)Cn1cnc2c1c(=O)n(C)c(=O)n2C | inactive
48 | C/C=C\C(=O)Nc1cccc(C2=NOC3(C2)C[C@@H](C(N)=O)N(C(=O)COc2ccc(Cl)cc2)C3)c1 (stereo not given in full) | inactive
49 | O=C(CCCN1C(=O)/C(=C/c2ccco2)SC1=S)Nc1cccc(C(=O)O)c1 | inconclusive [activator, partial curve]
50 | Cc1ccc(NC(=O)CCc2c(C)nn(-c3ccc(N4CCOCC4)nn3)c2C)cc1F | inconclusive [activator, single point]
